# Assay results as given in paper PMC12136788.
# The list shows a part of the results.
# T1: UNK ZnF1-3 (human, UniProt Q9C0B0 31-174)
# T1 sequence: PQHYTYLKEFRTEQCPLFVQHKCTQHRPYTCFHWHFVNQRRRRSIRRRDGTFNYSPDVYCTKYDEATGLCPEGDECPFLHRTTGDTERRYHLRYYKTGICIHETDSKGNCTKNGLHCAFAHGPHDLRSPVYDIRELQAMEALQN
# B1: chr1:109605286:109605287:-_ENSG00000197780_ENST00000461096|hu_mus|hu_hu_hu_mus_True|38_88 (ssRNA)
# RNA: GGGAGUUCUACAGUCCGACGAUCAAGUUUCAGAGUAACAUUCAGUAUACUUAAAUCAUGCAAUUAUCCUUAUUAUAAGCUAAGCAGAAUAAUAAUUUAAUACAUAGAGUGAACUACACACAAAGCCUGAACCGCGAAAAUGGUCAACAGAGGAUUGAGCAUCA
# B2: chr5:32599118:32599119:+_ENSG00000113387_ENST00000502897|hu_mus|FALSE|FALSE (ssRNA)
# RNA: GGGAGUUCUACAGUCCGACGAUCAGAAAUACCUUUUCUUCCUGGUUUCAUUUCACCUUCUGAAUCCAUCCAAUAUUCUCUAAUAUCAAUUAGAAUUUUUCCUUUGAAGUCCCGAACACUGACAUAUCUCAUCUUUCCAAUCUGCAACAGAGGAUUGAGCAUCA
# B3: chr13:42873578:42873579:+_ENSG00000023516_ENST00000025301|hu_hu|motif|central (ssRNA)
# RNA: GGGAGUUCUACAGUCCGACGAUCUUUAGCCAAUGACUUCUGCUGUCCAGAGCUAAUGAGAAUCUUUAAAUCAUGGGUUUCGGAAUGAUGACCAGUAACCGUCUGGGAAGCAGCAUCACACUGGCUCCUUAGCACAGUAAUGUUCAACAGAGGAUUGAGCAUCA
# B4: chr4:144465060:144465061:+_ENSG00000153147_ENST00000283131|hu_hu|motif|central (ssRNA)
# RNA: GGGAGUUCUACAGUCCGACGAUCAUAGUCUUCUCCUUCGAAGUUAUAAACACUUGACUCUGUAUCCAUUGUAAAGUUUCGGAGUGAACUUUCGCCCAUCUUGGAGAGCUUUUCAUUCAUCUCUGCAGUCUUCUUUGCACCUCUCAACAGAGGAUUGAGCAUCA
# B5: chr8:59070621:59070622:+_ENSMUSG00000038206_ENSMUST00000040218|mus_hu|motif|central (ssRNA)
# RNA: GGGAGUUCUACAGUCCGACGAUCGAUAAACAAAAUUAGGAAAAAUUCUGCAAAAUUAUUUAGUUCCCCAAGGAAAUUACGGAAAUAGAAAAUGGCAAAAGAAAAAAAGGUUGCACACUGAAGCUUGAUUGUAUACUCAGGCUACAACAGAGGAUUGAGCAUCA
# B6: chr5:24319680:24319681:-_ENSMUSG00000028945_ENSMUST00000030787|perfect_dup|motif|central (ssRNA)
# RNA: GGGAGUUCUACAGUCCGACGAUCAAGUUGAAGAUGAUAUUCUUGUCCAUUUACUGUGAUCAACUUUGUAAAAGUGUUUUCGGUGGUUGGAUCGUAGGAGUCCACAAAUUGGCCUUCAACAAAUUGAAUCGUCAAUGAGGAUUUCAACAGAGGAUUGAGCAUCA
# B7: 72170461_72172070_6263_CDS_ENSG00000066933_ENST00000356056|human|control|control (ssRNA)
# RNA: GGGAGUUCUACAGUCCGACGAUCCACUGGAGAUUCACCCAGUGAAUCACGCUGCUCAAGCCUCAUCGUCUUUUCCAGAAUCUGUUCAAAUAGUGCAUAGAGGUCUUUAUACCGUAUGCUUUUCCCAUCAUCCAUCGCCAAUGCCAACAGAGGAUUGAGCAUCA
# B8: chr7:75932113:75932114:+_ENSG00000106211_ENST00000248553|hu_hu|hu_hu_hu_mus_False|1_78 (ssRNA)
# RNA: GGGAGUUCUACAGUCCGACGAUCCUGCGACCACUCAUCGGGCAACCGGGGCACCCCGAAGGCCUGGUCGAAGAGGCGGCUGUGUGCAGGGUACCAGUCCCGGAAUGGUUCCCAGCUCGGGCUCCGCAGCAGCGAGAGGACGCGCAACAGAGGAUUGAGCAUCA
# B9: chrX:50352303:50352304:+_ENSMUSG00000025630_ENSMUST00000026723|mus_mus|FALSE|FALSE (ssRNA)
# RNA: GGGAGUUCUACAGUCCGACGAUCCGGCAUAAUGAUUAGGUAUACAAAACAAAUCUAGGUCAUAACCUGGUUCAUCAUCGCUAAUCACGACGCUGGGACUGCGGGUCGGCAUGACGGGACCGGUCGGCUCGCGGCAAAAAGCGGCAACAGAGGAUUGAGCAUCA
# B10: chr19:10652113:10652114:+_ENSMUSG00000034445_ENSMUST00000168445|mus_mus|motif|central (ssRNA)
# RNA: GGGAGUUCUACAGUCCGACGAUCAAGGAAGCGGCGGAACCACCACUGGAACCCAUAACCCGGCUCUCCCAGCCCGGGUUCGGUCCCACCCUUAGCCACACAGUGGGACACCUUGGGGGCAGGUCUCUGGGACCCGCCGGUCAGCAACAGAGGAUUGAGCAUCA
# B11: 46559633_46559753_1807_CDS_ENSG00000123200_ENST00000242848|human|control|control (ssRNA)
# RNA: GGGAGUUCUACAGUCCGACGAUCGUCAUGGGCAUCACGAGUGGACCGAGAAUCUCUGGGAUCACGGCUCUCUUUGGUAUCUCUGCUAUAAUCUCUCAUCUCCCUUGAGUCCCGCAUGUCUCUGGAGUCUCUUAGUUCCCUUCGCAACAGAGGAUUGAGCAUCA
# B12: chr6:41757443:41757444:+_ENSG00000214736_ENST00000398881|hu_mus|hu_hu_hu_mus_False|18_78 (ssRNA)
# RNA: GGGAGUUCUACAGUCCGACGAUCGAACCGUGCAGAGGCAACAUCUCAGCCGACACUGUGGACUCAAGGGGCAGUGGGGGGGGGUUCAGGCAAGGAGAGGGAGUCAACUUCAGCUGCUCAAACUUCAGGAUCUUGUGGUCACAGCAACAGAGGAUUGAGCAUCA
# B13: chr9:123526118:123526119:-_ENSG00000119402_ENST00000608872|hu_hu|motif|central (ssRNA)
# RNA: GGGAGUUCUACAGUCCGACGAUCGAGUUCCAGGGUAAGAGGCCCGGUCUCUAACCUUCCAGCUCACUGCUCUUUUCUGCGGUACCAGGGCACCGCUGUGCAGUCAUCCAGGCUGCCGGGGACUAGCUUCCCCGACAUGGCAACCAACAGAGGAUUGAGCAUCA
# B14: chr1:184392483:184392484:+_ENSMUSG00000026510_ENSMUST00000117245|mus_hu|FALSE|FALSE (ssRNA)
# RNA: GGGAGUUCUACAGUCCGACGAUCUUUUAAAGUCAGCUAUGAUCUUGACAAAUAUUACGGGUAAGUCUGUAGCAAGUUUCUAAUUUCUGAGAUACAAAAGACAAUAAAUACAGAUUAAAAUUCAGCCUACAAACAAGAUUCUACCAACAGAGGAUUGAGCAUCA
# B15: chr19:16212804:16212805:+_ENSG00000167460_ENST00000300933|hu_mus|hu_hu_hu_mus_False|68_98 (ssRNA)
# RNA: GGGAGUUCUACAGUCCGACGAUCAACAAUUCUGGAGAAGAACAUCAAUGUAACAUGGAACAGCAUUCCAUCUAUUACAGAAGGCACAUGGGCAACAAUGAUCACCCCAGCAUUCUCGCUUGGAAUGCUUAAAGACAAUCUGUUCAACAGAGGAUUGAGCAUCA
# B16: chrX:71549762:71549763:+_ENSMUSG00000019087_ENSMUST00000019231|mus_mus|mus_mus_mus_hu_False|1_28 (ssRNA)
# RNA: GGGAGUUCUACAGUCCGACGAUCAAACCCGUGUACUUCUUAUUGUUAGCACAACAUCACCAGAAAACGAUAACGACAGCCAAGCAGGACAGACAGUUAAGUAGUACUUCCACACCUCCAAACUCAGGGAGCCCUAUAGUUCAUCAACAGAGGAUUGAGCAUCA
# B17: 172128880_172129000_2286_3pUTR_ENSMUSG00000026667_ENSMUST00000150821|mouse|control|control (ssRNA)
# RNA: GGGAGUUCUACAGUCCGACGAUCCAGGGCAGCAGGGCAGAUGGGGGAGGAGGGUCUGUGAUGAGCUGCCUUCUCUGCACUCUUCUCUUUUCCCGUCACUGUGCAUCUAACUUUUAUCUGAUCCAUUUCAAUUUCCCAUUAUAGCAACAGAGGAUUGAGCAUCA
# B18: chr7:141450121:141450122:+_ENSG00000106028_ENST00000265304|hu_mus|hu_hu_hu_mus_True|28_88 (ssRNA)
# RNA: GGGAGUUCUACAGUCCGACGAUCUCAUCCGUUCUAUGCCUUUUCUUUCGUCUGGUCACUCAGAAAUAUAAUGUUAUCAGCUAUGAUUGUUGUUGCUUGCCGCCUCACAUUAUUUUUAUCCAUGUACUCGCCAUAGUCCACUUUCAACAGAGGAUUGAGCAUCA
# B19: 109884154_109885750_836_3pUTR_ENSMUSG00000028546_ENSMUST00000106598|mouse|control|control (ssRNA)
# RNA: GGGAGUUCUACAGUCCGACGAUCGUUCUGUAGCACCGCUGGGCUUCUGGCCAUUCAGUCCUUUGAUGGCUUCUUCUGCCUCAAUCCUCUUAUCAAAGCGGAUGAAUCCCACCCCUCUAGAGACCCCUGUGACUUGAUCAACCACAACAGAGGAUUGAGCAUCA
# B20: chr8:74858975:74858976:-_ENSG00000154582_ENST00000284811|hu_mus|hu_hu_hu_mus_True|8_108 (ssRNA)
# RNA: GGGAGUUCUACAGUCCGACGAUCGACCUUGUACGUAAAAUACAUGCACACUUUUGAUAGCACAUGUGAGGGGAUCUCUCUAAAAUUGACCUCGUUGGUUUCAUUCUCAGCAAACUGACCUGGACCACUCAACAUGGCCUUUAUCAACAGAGGAUUGAGCAUCA
# B21: chr1:46159521:46159522:+_ENSG00000159596_ENST00000372025|hu_hu|motif|central (ssRNA)
# RNA: GGGAGUUCUACAGUCCGACGAUCUUUUUAUACUUGACCAGGUCUCUUAUGUCCUUUUUCUGGAAAACUACUUUUAACGGCGGAAGUGAUUAUAAAUGAAAAAGUGGCCAAUAAAGUGACUACUAUCCUCAGGGCUUUAAACCACAACAGAGGAUUGAGCAUCA
# B22: 30262637_30263328_1237_CDS_ENSMUSG00000026853_ENSMUST00000028207|mouse|control|control (ssRNA)
# RNA: GGGAGUUCUACAGUCCGACGAUCCUCUCGGUUAACUUUGUCUUUAAUGAGGUUGUUGUAGGCCUUGGCCCAGGUGUUUCGGUGGUUGGAGGUUAGGAUGCCAACAGGCUCUUUGUUGGAUUGCAGUGAGGAAUUCCAUAUUUUCAACAGAGGAUUGAGCAUCA
# Biological target: T1, UNK ZnF1-3
# Assay: nsRBNS (natural sequence RNA bind-n-seq); RBNS binding buffer (assumed for nsRBNS): 25 mM Tris pH 7.5, 150 mM KCl, 3 mM MgCl2, 0.01% Triton X-100, 500 ug/ml BSA, 20 U/ml SUPERase-In, 4 C; UNK is unkempt and MSI1 is Musashi-1; names of the RNAs are library labels; protein concentration not given here; high values mean tight binding
row,Binder,binding signal
1,B1,0.61 enrichment R
2,B2,0.615 enrichment R
3,B3,0.869 enrichment R
4,B4,0.348 enrichment R
5,B5,2.85 enrichment R
6,B6,0.867 enrichment R
7,B7,0.575 enrichment R
8,B8,0.463 enrichment R
9,B9,0.466 enrichment R
10,B10,0.505 enrichment R
11,B11,0.749 enrichment R
12,B12,2.27 enrichment R
13,B13,0.639 enrichment R
14,B14,0.89 enrichment R
15,B15,0.877 enrichment R
16,B16,1.51 enrichment R
17,B17,0.764 enrichment R
18,B18,0.463 enrichment R
19,B19,1.11 enrichment R
20,B20,0.616 enrichment R
21,B21,1.17 enrichment R
22,B22,0.621 enrichment R
